# According to the supplement of paper PMC8285479:
# Counter-ions that a name gives are not always drawn. ± gives the standard deviation of the averaged measurements. In all, about 1,900 compounds were measured (“normalised cell viability (NPI; 0 = phenylarsine oxide control, 1 = DMSO control)”: median about 1, lowest 2% from about 0.039 on). The list shows a part of the results.
# System: NCI-H1944
# Test: normalised cell viability (NPI; 0 = phenylarsine oxide control, 1 = DMSO control) (fraction of DMSO control); NCI-H1944 is a non-small cell lung cancer line; higher = more viable cells (less compound toxicity)
# Details: 6 days
# [1] = glucocorticoid arm: hydrocortisone 2.75 uM co-treatment, compound 1 µM
# [2] = glucocorticoid arm: hydrocortisone 2.75 uM co-treatment, compound 5 µM
# [3] = glucocorticoid arm: hydrocortisone 2.75 uM pre-treated 2 days and continued, compound 1 µM
# [4] = glucocorticoid arm: hydrocortisone 2.75 uM pre-treated 2 days and continued, compound 5 µM
# [5] = glucocorticoid arm: vehicle, compound 1 µM
# [6] = glucocorticoid arm: vehicle, compound 5 µM
# 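Also: CTB read-out in 384-well plates, mean of triplicate wells, normalised per plate against 1 µM phenylarsine oxide and 0.1% DMSO, compounds added 24 h after seeding.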
SMILES,normalised cell viability [1],normalised cell viability [2],normalised cell viability [3],normalised cell viability [4],normalised cell viability [5],normalised cell viability [6]
CN(C)Cc1ccc(-c2nc3cccc4c3n2CCNC4=O)cc1,0.98 ± 0.014,1 ± 0.014,0.977 ± 0.013,1.01 ± 0.016,0.987 ± 0.003,0.971 ± 0.012
Cc1[nH]c(/C=C2\C(=O)Nc3ccc(S(=O)(=O)N(C)c4cccc(Cl)c4)cc32)c(C)c1C(=O)N1CCN(C)CC1,0.9913 ± 0.0072,0.986 ± 0.012,1.003 ± 0.0058,0.989 ± 0.014,0.969 ± 0.01,0.849 ± 0.036
Cc1nc(NC(=O)N2CCC[C@H]2C(N)=O)sc1-c1ccnc(C(C)(C)C(F)(F)F)c1,0.751 ± 0.046,0.509 ± 0.015,0.781 ± 0.011,0.583 ± 0.027,0.936 ± 0.014,0.6607 ± 0.0029
CC(C)NCC(O)COc1cccc2ccccc12 (stereo not given) [Propranolol HCl],1.03,1.01 ± 0.018,1.03 ± 0.011,1.04 ± 0.011,0.9913 ± 0.0011,0.9797 ± 0.0031
Nc1ncnc2c1c(-c1cnc3[nH]ccc3c1)nn2C1CCCC1,0.425 ± 0.051,0.132 ± 0.0044,0.393 ± 0.019,0.15 ± 0.013,0.548 ± 0.027,0.0446 ± 0.004
C[C@@H](NC(=O)/C(C#N)=C/c1ccc(O)c(O)c1)c1ccccc1 [Tyrphostin AG 527],1.013 ± 0.0058,0.9963 ± 0.0038,0.879 ± 0.22,0.999 ± 0.011,1.003 ± 0.0058,1.003 ± 0.0061
N#C/C(=C/c1ccc(O)c(O)c1)C(=O)N1CCc2ccccc21 [Tyrphostin AG 528],0.993 ± 0.0089,0.987 ± 0.032,1.02 ± 0.031,0.9767 ± 0.0095,1.003 ± 0.0058,1.02 ± 0.01
CCC1=C(C)CN(C(=O)NCCc2ccc(S(=O)(=O)NC(=O)N[C@H]3CC[C@H](C)CC3)cc2)C1=O [Glimepiride],0.9887 ± 0.0096,1.02 ± 0.015,1.01 ± 0.015,1.03 ± 0.011,1.003 ± 0.0058,1.01 ± 0.012
O=C1CCc2cc(OCCCCc3nnnn3C3CCCCC3)ccc2N1 [Cilostazol],1 ± 0.011,1.03 ± 0.015,1 ± 0.013,1.025 ± 0.0071,0.9897 ± 0.009,1.007 ± 0.0058
N#C[C@@H]1C[C@@H]2C[C@@H]2N1C(=O)[C@@H](N)C12CC3CC(CC(O)(C3)C1)C2,0.977 ± 0.018,0.991 ± 0.033,1 ± 0.019,1.01 ± 0.012,0.99 ± 0.0089,0.997 ± 0.012
"O=C(O)[C@H]1C[C@H](C(=O)O)N1 (relative stereo) [trans-Azetidine-2,4-dicarboxylic acid]",1.007 ± 0.0058,1.007 ± 0.0058,1.005 ± 0.0087,1.01,0.9843 ± 0.0025,0.9883 ± 0.0091
O=P(O)(O)C(Cl)(Cl)P(=O)(O)O [Clodronic acid],1 ± 0.018,0.998 ± 0.011,1 ± 0.013,0.9957 ± 0.0058,0.9967 ± 0.0058,0.994 ± 0.004
N=C(N)NCCC[C@H](N)C(=O)O [L-Arginine],1 ± 0.018,0.997 ± 0.0027,0.994 ± 0.0066,1 ± 0.011,0.986 ± 0.0085,1.001 ± 0.0081
CNCCC(Oc1ccc(C(F)(F)F)cc1)c1ccccc1 (stereo not given) [Fluoxetine HCl],0.996 ± 0.002,0.897 ± 0.013,0.991 ± 0.041,0.956 ± 0.014,0.995 ± 0.0056,0.974 ± 0.027
CNCCC(Oc1ccc(C(F)(F)F)cc1)c1ccccc1 (stereo not given) [Fluoxetine hydrochloride],0.996 ± 0.013,0.933 ± 0.025,1 ± 0.0095,1.02 ± 0.015,1.01 ± 0.011,0.9983 ± 0.0021
C[C@@H](CN1CC(=O)NC(=O)C1)N1CC(=O)NC(=O)C1 [Dexrazoxone; Dexrazoxane],1.03,1.04 ± 0.04,1.02 ± 0.011,1.02 ± 0.01,0.9923 ± 0.008,1.003 ± 0.0058
OCc1cc(C(O)CNCCCCCCOCCCCc2ccccc2)ccc1O (stereo not given) [Salmeterol Xinafoate],1.017 ± 0.0058,0.957 ± 0.031,1.017 ± 0.0058,0.962 ± 0.037,1.007 ± 0.0058,0.988 ± 0.0056
OCc1cc(C(O)CNCCCCCCOCCCCc2ccccc2)ccc1O (stereo not given) [Salmeterol xinafoate],0.9917 ± 0.0047,0.944 ± 0.017,0.897 ± 0.19,1.03 ± 0.015,1 ± 0.0092,1.01 ± 0.011
C#CCN1C(C)=C(C(=O)OC)C(c2cccc([N+](=O)[O-])c2)C(C(=O)OCC)=C1C (stereo not given),0.9993 ± 0.0092,0.861 ± 0.0093,0.9923 ± 0.0049,1.09 ± 0.078,1.013 ± 0.0058,0.985 ± 0.033
CN(C)C1CCN(C(=O)c2ccc(NC(=O)Nc3ccc(-c4nc(N5CCOCC5)nc(N5CCOCC5)n4)cc3)cc2)CC1,0.231 ± 0.011,0.105 ± 0.0056,0.311 ± 0.026,0.147 ± 0.012,0.0929 ± 0.0075,0.0212 ± 0.0032
"CCCCCCCCCCC/C=C\C(C)(C)/C=C\CCCC(=O)O [7,7-Dimethyl-(5Z,8Z)-eicosadienoic acid]",1.01 ± 0.013,1.01 ± 0.011,1.007 ± 0.0058,1.007 ± 0.0058,0.9913 ± 0.004,0.9977 ± 0.0025
Cc1cc2c(cc1Cl)N(C(=O)Nc1cccc3ncccc13)CC2,0.985 ± 0.011,0.965 ± 0.015,1 ± 0.016,1.03 ± 0.084,0.9793 ± 0.0086,0.992 ± 0.007
CCCS(=O)(=O)Nc1ccc(F)c(C(=O)c2c[nH]c3ncc(-c4ccc(Cl)cc4)cc23)c1F [vemurafenib],1.04 ± 0.011,1.14 ± 0.02,1.03 ± 0.01,1.08 ± 0.01,1.01 ± 0.01,1.037 ± 0.0058
CCCS(=O)(=O)Nc1ccc(F)c(C(=O)c2c[nH]c3ncc(-c4ccc(Cl)cc4)cc23)c1F [Vemurafenib (PLX4032)],1.05 ± 0.011,0.997 ± 0.029,1.03,1.01 ± 0.026,1.017 ± 0.0058,1.007 ± 0.0058
CCCCNC(=O)NS(=O)(=O)c1ccc(C)cc1 [Tolbutamide],0.9913 ± 0.006,1 ± 0.024,0.809 ± 0.34,0.9917 ± 0.008,0.9977 ± 0.004,0.989 ± 0.011
